These results are taken from PMC4336329 (PLoS ONE, 2015).

The whole screen tested about 310,000 compounds, of which about 14,000 (4.5%) showed an effect of 50% or more. The effect is printed as a negative number. Some of the results follow.
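Also: peak tail current of the secondary pulse compared with the same well before compound.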

For the assay, the target named is human ether-à-go-go-related gene (hERG) potassium channel (human, UniProt Q12809). The assay can be described thus: primary screen, population patch clamp on CHO cells stably expressing hERG.
Chain of human ether-à-go-go-related gene (hERG) potassium channel (Q12809 whole entry, looked up): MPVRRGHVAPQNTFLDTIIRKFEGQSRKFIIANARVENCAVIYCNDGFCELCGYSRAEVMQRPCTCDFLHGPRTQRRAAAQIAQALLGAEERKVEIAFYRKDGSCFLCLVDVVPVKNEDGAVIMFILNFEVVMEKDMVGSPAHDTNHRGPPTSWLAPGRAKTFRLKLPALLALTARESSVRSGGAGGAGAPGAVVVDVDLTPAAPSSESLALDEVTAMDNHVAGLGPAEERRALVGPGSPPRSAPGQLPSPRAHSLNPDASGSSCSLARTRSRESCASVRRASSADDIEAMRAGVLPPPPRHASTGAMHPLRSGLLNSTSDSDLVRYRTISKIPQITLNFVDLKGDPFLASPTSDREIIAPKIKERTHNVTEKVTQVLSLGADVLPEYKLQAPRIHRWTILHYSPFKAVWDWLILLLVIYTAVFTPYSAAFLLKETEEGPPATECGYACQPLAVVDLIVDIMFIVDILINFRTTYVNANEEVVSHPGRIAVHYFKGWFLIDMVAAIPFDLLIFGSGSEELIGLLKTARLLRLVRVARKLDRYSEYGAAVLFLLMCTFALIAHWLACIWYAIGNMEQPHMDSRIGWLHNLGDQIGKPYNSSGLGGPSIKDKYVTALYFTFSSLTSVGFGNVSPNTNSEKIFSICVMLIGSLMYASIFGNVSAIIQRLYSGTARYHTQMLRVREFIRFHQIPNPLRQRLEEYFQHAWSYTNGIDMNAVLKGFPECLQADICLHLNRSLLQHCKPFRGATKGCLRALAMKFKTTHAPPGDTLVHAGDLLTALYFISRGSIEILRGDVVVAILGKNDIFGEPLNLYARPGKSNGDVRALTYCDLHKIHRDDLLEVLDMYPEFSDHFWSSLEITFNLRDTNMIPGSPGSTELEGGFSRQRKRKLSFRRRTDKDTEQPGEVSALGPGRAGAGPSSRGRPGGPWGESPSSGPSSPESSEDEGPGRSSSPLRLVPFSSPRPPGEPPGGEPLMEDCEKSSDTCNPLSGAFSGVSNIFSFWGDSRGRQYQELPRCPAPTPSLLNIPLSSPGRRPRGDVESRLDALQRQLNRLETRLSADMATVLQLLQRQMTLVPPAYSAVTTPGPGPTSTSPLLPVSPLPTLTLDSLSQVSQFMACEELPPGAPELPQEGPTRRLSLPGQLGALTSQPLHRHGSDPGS
`COc1ccc(Cl)cc1NC(=O)NCC1CCN(C(=O)OC(C)(C)C)CC1`: the “hERG current change (%, negative = inhibition) at 10uM” value was 4.67%. Consider `CCC(C(=O)NC1CCCCC1)n1c(SCc2ccccc2F)nc2ccncc21` (centres unmarked), for which the “hERG current change (%, negative = inhibition) at 10uM” value is given as -8.29%. For `CN1CCN(NC(=O)Nc2ccc(Br)cc2Cl)CC1` the value was -47.3%. For `CC(=O)N1CCC(C(=O)NCCOc2ccc(C)cc2)CC1`, the “hERG current change (%, negative = inhibition) at 10uM” value is given as 7.67%. For `COc1ccc(/C=N/NC(=O)c2cc(C)oc2C)cc1OC` the value was -17.8%.

Regarding `Cc1ccc(CNC(=O)CO/N=C/c2ccc3c(c2)OCO3)cc1`, the “hERG current change (%, negative = inhibition) at 10uM” value came out at 16.4%.

Take `CC(C)C(NC(=O)OCc1ccccc1)C(=O)N1CCOCCOCCOCC1` (centres unmarked): the “hERG current change (%, negative = inhibition) at 10uM” value is reported as 20.1%.

Take `O=C(Nc1ccccc1)c1nn(-c2cccc(C(F)(F)F)c2)ccc1=O`: the “hERG current change (%, negative = inhibition) at 10uM” value is given as -34.5%. Then `O=C(c1cccs1)N1N=C(c2ccccc2)CC1c1ccccc1O` (centres unmarked), with 23.3%; and `Br.Clc1ccc(-c2cn3cc(Br)ccc3n2)cc1Cl`, with 8.27%; and `Cc1ccc(C)c(Nc2nn3c(=O)c4ccc(C(=O)NCc5cccnc5)cc4nc3s2)c1`, with 14.3%. For `COc1cccc(OCCn2cccc2/C=C2/C(=N)N3OC(C)=CC3=NC2=O)c1` the value was -23.5%. For `COc1ccc(N(CC(=O)N/N=C/c2ccc(-c3ccc([N+](=O)[O-])cc3)o2)S(=O)(=O)c2ccc(C)cc2)cc1Cl` the value was 9.59%; for `CC(Oc1ccc2c(-c3ccccc3)cc(=O)oc2c1)C(=O)O` (centres unmarked), 1.64%; for `CC12CN(Cc3ccccc3)CC(C)(CN(Cc3ccccc3)C1)C2=O`, 11%.

For `O=C(NNC(=S)NCc1ccco1)C(c1ccccc1)c1ccccc1`, the “hERG current change (%, negative = inhibition) at 10uM” value is listed as 5.44%. Then `COc1ccc(-n2c(=O)c3ccccc3n(CC(=O)Nc3ccccc3OC)c2=O)cc1`, with 0.109%; and `COc1cc(C2CC(=O)Oc3c(C(CCN4CCCC(C)C4)c4ccc(N(C)C)cc4)c(OC)cc(OC)c32)cc(OC)c1OC` (centres unmarked), with -10.7%; and `O=C(CSc1ncn[nH]1)NC1CC2CCC1C2` (centres unmarked), with 19.9%. As for `OCCNc1cc(-n2nc(-c3ccccc3)cc2-c2ccccc2)ncn1`, the “hERG current change (%, negative = inhibition) at 10uM” value is -26.8%. Regarding `Nc1c(C(=O)OCc2ccccc2)c2nc3ccccc3nc2n1Cc1cccs1`, the “hERG current change (%, negative = inhibition) at 10uM” value is -2.49%.

On to `Cc1cc(OC(=O)c2cc(Cl)ccc2Cl)c([N+](=O)[O-])c(=O)[nH]1`, for which the “hERG current change (%, negative = inhibition) at 10uM” value is on record as 7.45%. Then `CN(C)c1ccsc1C(=O)NNS(=O)(=O)c1ccc(Cl)cc1`, with -4.68%.

Consider `Cc1ccc(C2(c3ccccc3)NC(=O)N(CC(=O)NCc3ccco3)C2=O)cc1C` (centres unmarked), for which the “hERG current change (%, negative = inhibition) at 10uM” value is listed as -50.4%. Then `O=C(CSc1ncc(C(F)(F)F)cc1Cl)N1CCN(S(=O)(=O)c2ccc(Cl)cc2)CC1`, with 6.74%. Then `Cc1cc(C)n2nc(CC#N)c(C#N)c2n1`, with 12%; and `CN(C)N1C(N)=C(C#N)C(c2ccsc2)C2=C1CCCC2=O` (centres unmarked), with -22.7%; and `CCCCn1nc2cc(C(=O)NCc3cc(C(F)(F)F)cc(C(F)(F)F)c3)ccc2c1OC`, with 12.6%. `Cc1cccc(NC(=O)c2ccc(C)c(S(=O)(=O)N3CCCCC3)c2)n1`: the “hERG current change (%, negative = inhibition) at 10uM” value is given as -36.7%. On to `Cc1cccc(OCCCC(=O)Nc2nnc(C3CCCO3)s2)c1C` (centres unmarked), for which the “hERG current change (%, negative = inhibition) at 10uM” value is reported as 16.1%. For `O=C(NNC(=O)C1CCCCC1)c1ccc(Br)cc1` the value was 12.3%; for `O=C(N/N=C/C(Cl)=C/c1ccc([N+](=O)[O-])cc1)C(=O)Nc1cccc(C(=O)O)c1`, 12.4%. For `Cc1nnsc1Sc1cccc(C(F)(F)F)c1` the value was 10.5%. For `O=C(Nc1ccc(Cl)c(Cl)c1)N1CC=C(c2ccccc2)CC1` the value was 6.12%. As for `Cc1ccc(NC(=O)[C@H](Cc2c[nH]c3ccccc23)NC(=O)[C@@H]2Cc3ccccc3CN2)c(C)c1`, the “hERG current change (%, negative = inhibition) at 10uM” value is on record as -30.1%. Regarding `Cn1ncc(Br)c1C(=O)Nc1ccc(F)cc1F`, the “hERG current change (%, negative = inhibition) at 10uM” value came to 6.1%. Then `CN(C)c1ccc(N=Nc2ccccc2C(=O)OCC(=O)NCC2CCCCC2)cc1`, with 6.61%.

Consider `O=C(/C=C/Nc1ccc([N+](=O)[O-])cc1)c1ccc(Br)cc1`, for which the “hERG current change (%, negative = inhibition) at 10uM” value was found to be 9.65%. `COc1ccccc1C(=O)N=c1sc2c(C)ccc(OC)c2n1C`: the “hERG current change (%, negative = inhibition) at 10uM” value was 14.4%.

Take `NNC(=S)NCCc1ccccc1`: the “hERG current change (%, negative = inhibition) at 10uM” value came out at 20.1%. With `O=C(NCc1ccccn1)c1ccc(Cl)c(S(=O)(=O)N2CCCCCC2)c1`, the “hERG current change (%, negative = inhibition) at 10uM” value is reported as -64.5%. Then `Cc1ccccc1N1CCN(Cc2c(C#N)c3ccccc3n2C)CC1`, with 9.54%; and `COc1ccc(S(=O)(=O)N2CCC(C(=O)NCCC(=O)Nc3cccc(Cl)c3)CC2)cc1`, with -2.63%; and `COCCN1C(=O)N(c2ccc(Cl)cc2)C(=O)C1CC(=O)Nc1cc(OC)cc(OC)c1` (centres unmarked), with 1.59%. Take `O=C(O)CC1C(=O)OCN1C(=O)OCc1ccccc1` (centres unmarked): the “hERG current change (%, negative = inhibition) at 10uM” value stood at 9.38%. Then `Cc1[nH]n(-c2cccc(Cl)c2)c(=O)c1-c1ccccc1`, with 17.1%; and `CCCC(=O)NC(C)c1nc2ccccc2n1C(C)C` (centres unmarked), with 8.05%. In the case of `c1ccc(-c2cc3ccccc3[nH]2)cc1`, the “hERG current change (%, negative = inhibition) at 10uM” value amounted to 21%.

Take `CC(=O)Nc1ccc(NC(=O)c2cccc(Oc3ccccc3)c2)cc1`: the “hERG current change (%, negative = inhibition) at 10uM” value stood at 8.84%. Regarding `COc1cccc(C(=O)O/N=C(\N)c2ccc([N+](=O)[O-])cc2)c1OC`, the “hERG current change (%, negative = inhibition) at 10uM” value is recorded as -10.7%.

With `Cc1ccccc1NC(=S)N(Cc1cccnc1)Cc1ccco1`, the “hERG current change (%, negative = inhibition) at 10uM” value is reported as -7.58%. For the compound `C=CCNC(=O)c1c(O)c2cccc3c2n(c1=O)CCC3`, the “hERG current change (%, negative = inhibition) at 10uM” value came out at 16.9%. Then `CC(C)(C)c1ccc(-c2noc(CCC(N)=O)n2)cc1`, with -11%. On to `COc1ccc(N2CCN(S(=O)(=O)CCNC(=O)/C=C/c3ccccc3)CC2)cc1`, for which the “hERG current change (%, negative = inhibition) at 10uM” value was -34.1%.

Regarding `CCCCC(=O)Nc1sc2c(c1C#N)CC(C)(C)OC2`, the “hERG current change (%, negative = inhibition) at 10uM” value was -5.82%. Turning to `Cc1ccc(S(=O)(=O)NCC(=O)OC2CCOC2=O)cc1` (centres unmarked), the “hERG current change (%, negative = inhibition) at 10uM” value was 4.46%.
